Experimental data: PubChem BioAssay AID686970 (National Center for Advancing Translational Sciences (NCATS), 2013)
The whole screen tested about 360,000 compounds, of which about 6,000 (1.7%) were called active. The inconclusive results got no clear call from the source; some entries with a clear call stand among them for comparison. Calls follow the shape of the dose curve; as a rule, active = well fitted cell-killing curve with a large enough effect; inconclusive = small, poorly fitted or top-dose-only effect, or effect the other way; inactive = flat fitted curve, though single readings scatter. Potencies of inconclusive entries are left out as doubtful fits.

Experiment: qHTS for induction of synthetic lethality in tumor cells producing 2HG: qHTS for the HT-1080-NT fibrosarcoma cell line;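 also: NT is the 2HG producing partner of a matched IDH1 knockdown line; nearly all actives have a fitted effect of over 55% in size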;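 as to activity, negative = less viability: 0% = DMSO-treated cells and -100% = media-only wells without cells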
Conditions: HT-1080-NT fibrosarcoma viability, CellTiter-Glo ATP luminescence, 48 h; activity, negative = less viability: at 46.1 µM (top of the series) unless noted
Method in brief: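 750 cells/well, RPMI + 5% FBS; 2 h settle, compound pin-transfer, 48 h at 37 degrees C. CellTiter-Glo 10 min RT, luminescence. Normalized to DMSO and media-only wells.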
Potency is read from the fitted curve at half-maximal effect; tags tell the direction and shape of the fitted curve.

SMILES	activity, negative = less viability	Potency
COC(=O)c1ccc(OCC(O)CN(CC(C)C)CC(C)C)cc1 (stereo not drawn)	inactive: -8.44%	–
CCN1CCN(Cc2c(O)ccc3c2O/C(=C\C=C\c2ccccc2)C3=O)CC1	–	inconclusive [cytotoxic, partial curve]
Cc1ccc(OCc2nc3ccccc3n2C(C(=O)Nc2c(C)cccc2C)C2CC2)cc1 (stereo not drawn)	–	inconclusive [cytotoxic, single point]
CCCCN(Cc1ccccc1)S(=O)(=O)c1cc(Br)cc2c1N(C(C)=O)C(C)C2 (stereo not drawn)	–	inconclusive [cytotoxic, single point]
COc1cc2c(cc1Cl)/C(=C\CCN(C)C)c1ccccc1S2	–	inconclusive [cytotoxic, single point]
CCOC(=O)c1ccc2nc(C)c3c(c2c1)OC(C)C3 (stereo not drawn)	inactive: -14.6%	–
COc1ccccc1Nc1nc(N)nc(CN2CCN(Cc3ccc4c(c3)OCO4)CC2)n1	inactive: -17.5%	–
C=CCn1c(C)cc(C2=NNC(=NCc3ccccc3)SC2)c1C	–	inconclusive [cytotoxic, single point]
CCCCn1c(SCC(=O)c2ccc(O)c(O)c2)nc2ccsc2c1=O	inactive: -27%	–
CC(=O)Nc1cccc(-c2ccnc3c2CC(C)(C(=O)NCc2cccc(Cl)c2)O3)c1 (stereo not drawn)	–	inconclusive [cytotoxic, partial curve]
CC(NC(=O)C1CCN(C(=O)Nc2ccccc2)CC1)c1ccccc1Cl (stereo not drawn)	inactive: -1.56%	–
CC1=Nc2ccccc2N=C(NC(=O)CSc2nnnn2-c2ccccc2)C1c1ccccc1 (stereo not drawn)	inactive: -13.6%	–
Cc1ccc(N2C(S)=C(C#N)C(=O)NC2c2cccs2)cc1 (stereo not drawn)	inactive: -8.46%	–
CCc1ccc(NC(=O)c2cc(S(=O)(=O)N3CCc4ccccc43)cn2C)cc1	–	inconclusive [cytotoxic, single point]
CCOc1ccc(C(=O)N2CCN(c3cccc(Cl)c3)CC2)cc1	inactive: 0.264%	–
CC(C)C(=O)NC(c1ccco1)c1ccc2cccnc2c1O (stereo not drawn)	–	active: 4.11 µM
CC(C)c1ccc(CN2CCN(C(=O)CSc3nnnn3C3CC3)CC2)cc1	inconclusive: -17% [cytotoxic]	–
COc1ccccc1N1CCN(C(=O)c2c(-c3ccccc3)noc2C)CC1	–	inconclusive [cytotoxic, single point]
CCCC(=O)OCCNc1cc(SCCC(=O)OC)c2nonc2c1[N+](=O)[O-]	–	inconclusive [cytotoxic, single point]

SMILES	activity, negative = less viability	Potency
CC12CCC(C(=O)N(NC(=O)c3cc(Cl)ccc3O)C1=O)C2(C)C (stereo not drawn)	inactive: 5.28%	–
CN(CCCNC(=O)CSc1cc(=O)n(C)c2ccc(Cl)cc12)Cc1ccccc1	–	inconclusive [cytotoxic, single point]
Cc1cccc(OCCC(=O)Nc2ccc(N3CCOCC3)cc2N2CCOCC2)c1	inactive: 15%	–
C/C(CC(=O)Nc1ccc(Cl)c(C(F)(F)F)c1)=N\NC(=O)c1cc2ccccc2cc1O	–	inconclusive [cytotoxic, single point]
COc1ccccc1N1CCN(C(CNC(=O)c2ccco2)c2cccnc2)CC1 (stereo not drawn)	inactive: 0%	–
COc1cc(NS(=O)(=O)c2ccc(N=Cc3c(C)[nH]n(-c4ccccc4)c3=O)cc2)nc(OC)n1	–	inconclusive [cytotoxic, single point]
CC(=O)OCC(=O)C1(O)CCC2C3CCC4=CC(=O)C=CC4(C)C3(F)C(O)CC21C (stereo not drawn)	–	inconclusive [rising, partial curve]
CCCCCCCCn1c2c(c(=N)c3c1CCC3)CCCC2	–	active: 16.4 µM
CCc1nc2ccc(C(=O)NC3CCN(C)CC3)cn2c1N(C)CCC(C)C	–	active: 16.4 µM
COc1cc2cc(C(=O)N3CCOCC3)cc(-c3ccc(C)cc3)c2cc1OC	–	inconclusive [cytotoxic, partial curve]
CCOc1ccc(/C=N/NC(=O)C2CCCC2)c(OCC)c1	–	inconclusive [rising, single point]
CCN(CC)c1ccc(CNc2nc3ccccc3n2CCN2CCCCC2)cc1	–	active: 16.4 µM
O=c1oc2ccccc2cc1-c1cn2ccccc2n1	–	active: 25.9 µM
CCN(CC)c1ccc(/C=N/NC(=S)NCc2ccccc2)c(O)c1	inactive: -27.8%	–
COc1ccc(C[C@](C)(N)C(=O)O)cc1OC	inconclusive: 22.8%	–
CCOc1ccc(Oc2cc(N)cc([N+](=O)[O-])c2)cc1	inactive: -2.46%	–
COC(=O)C1=CN(c2ccc3c(c2)OCO3)C(N)=C(C#N)C1c1ccc(-c2ccccc2)cc1 (stereo not drawn)	–	active: 5.17 µM
O=C(Nc1ccc(Cl)cc1)c1ccc(CN2CCc3ccccc3C2)cc1	–	inconclusive [cytotoxic, single point]
Clc1ccc2c(c1)C1OCCC1C(c1ccco1)N2 (stereo not drawn)	inactive: -29.6%	–
